Test results taken from the RNAGym collection of RNA variant scans (doi:10.7554/elife.90254).
Read counts are not given, so values of variants with three or more changes are uncertain.

B1: OR4K15 (parent)
chain: GUUAACGGUCAUAGGCCAUGGAAACUAGGAGCACCAUUUCGCUGCCAGUGAAGAAAUGAACAAAGAAAAUCUGGGCCAGGCAGGCAUCAAAAGAAAUAGUCUUGCGCUCAACCAGAAAGUCUGUAAUCAUUUUAAGGGUA

Variants of: B1
Assay: self-cleavage, relative activity (ratio to wild type); higher = more cleavage; in vitro, sequencing; the parent is a self-cleaving ribozyme

Variant | self-cleavage
GUUAACGGUCAUAGGCCAUGGAAACUAGGAGCACCAUUUCGCCGCCAGUGAAGAAAUGAGCAAAGAAAAUCUGGGCCAGGCAGGCAUCAAAAGAAAUAGUCUUGCGCUCAACCAGAAAGUCCGUAAUCAUUUUAAGGGUA [U43C A60G U122C] | 0.47
GUUAACGGUCAUAGGCCAUGGAAACUAGGAGCACCAUUUCGCUGCCAGUGAAGAAAUGAACGAAGAAAAUCCGGGCCAGGCAGGCAUCAAAAGAAAUAGUCUUGCGCUCAACCAGAAAGUCUGUAAUCAUCUUAAGGGUA [A62G U72C U131C] | 0.12
GUUAACGGUCAUAGGCCAUGGAAACUAGGAGCACCAUUUCGCUGCCGGUGUAGAAAUGAACAAAGAAAAUCUGGGCCAGGCAGGCAUCAAAAGAAAUAGUCUUGCGCUCAACCAGAAAGUCUGCAAUCAUUUUAAGGGUA [A47G A51U U124C] | 0.6
GUUAACGGUCAUAGGCCAUGGAAACUAGGAGCACCAUUUCGCUGCCAGUGAAGAAAUGAACAAAGAAAGUCUGGGCCAGGCAGGCGUCAAAAGAAAUAGUCUUGCGCUCAUCCAGAAAGUCUGUAAUCAUUUUAAGGGUA [A69G A86G A111U] | 0.08
GUUAACGGCCAUAGGCCAUGGAAAUUAGGAGCACCAUUUCGCUGCCAGUGAGGAAAUGAACAAAGAAAAUCUGGGCCAGGCAGGCAUCAAAAGAAAUAGUCUUGCGCUCAACCAGAAAGUCUGUAAUCAUUUUAAGGGUA [U9C C25U A52G] | 1.3
GUUAACGGUCAUAGGCCAUGGAAACUAGGAGCACCAUUUCGCUGCCAGUGGAGGAAUGAACAAAGAAAAUCUGGGCCAGGCAGGCAUCAAAAGAAAUAGUCAUGCGCUCAACCAGAAAGUCUGUAAUCAUUUUAAGGGUA [A51G A54G U102A] | 1.58
GUUAACGGUCAUAGGCCAUGGAAACUAGGAGCACCAUUUCGCUGCCAGUGAAGAAAUGAACAAAGAAAAUCUGGGCCAGGCAGGCAUCAAAAGUAAAAGUCUUGCGCUCAACCAGAAAGUCUGUAAUCAUUCUAAGGGUA [A94U U97A U132C] | 2.24
GUUAACGGUCAUAGGCCAUGGAACCUAGGAGCACCAUUUCGCUGCCAGUGAAGAAAUGAACAAAGAAAAUCUGGGCCAGGCAGGCAUCAAAAGAGAUAGUCUCGCGCUCAACCAGAAAGUCUGUAAUCAUUUUAAGGGUA [A24C A95G U103C] | 1.37
GUUAACGGUCAUAGGCCAUGGAAACUAGGAGCACCAUUUCGCUGCCAGUGAAGAAAUGAACAAAGAAGAUCUGGGCCAGGCAGGCAUCAAAAAGAAUAGUCUUGCGCUCAACCAGAAAGUCUGUAAUCAUUUUAAGGGUA [A68G G93A A94G] | 2.57
GUUAACGGUCAUAGGCCAUGGAAACUAGGAGCGCCACUUCGCUGCCAGCGAAGAAAUGAACAAAGAAAAUCUGGGCCAGGCAGGCAUCAAAAGGAAUAGUCUUGCGCUCAACCAGAAAGUCUGUAAUCAUUUUAGGGGUA [A33G U37C U49C A94G A135G] | 0.41
GUUAACGGUCGUAGGCCAUGGAAACUAGGAGCACCAUUUCGCUGCCAGUGAAGAAACGAAUGAAGAAAAUCUGGGCCAGGCAGCCAUCAAAAGAAACAGUCUUGCGCUCAACCAGAAAGUCUGUAAACAUUUUAAGGGUA [A11G U57C C61U A62G G84C U97C U127A] | 0.1
GUUAACGGUCAUAGGCCAUGGAAACUAGGAGCACCAUCUCGCUGCCAGUGAAGAAAUGAACAAAGAAAAUCUGGGCCAGGCAGGCAACAAAAGAGAUAGUCUUGAGCUCAACCAGAUAGUCUGUAAUCAUUUUAAGGGUA [U38C U87A A95G C105A A117U] | 0
GUUAACGGUCAUAGGCCAUGGAAACUAGGAGCACCAUUUCGCUGCCAGUGAAGAAAUGAACAAAGAAAAUCUGGGCCUGGCAGGCAUCAAAAGAAAUAGUCUUGCGCACAGCCAGAAAGUCUGUAAUCAUUUUAAGGGUA [A78U U108A A111G] | 0.01
GUUAACGGUCAUAGGCCAUGGAAACUAGGAGCACCAUUUCGCUGCCAGUGAAGAAAUGAACAAAGAAAAUCUGGGCCAGGCAGGCAUCAAAAGAAAUAGUCUCGCGCUCAACCAGAAAGUCUGUAACCAUUUCAAGGGUA [U103C U127C U133C] | 0.77
GUUAACGGUCAUAGGCCAUGGAAACUAGGAGCACCAUUUCGCUGCCAGUGCAGAAAUGAACAAAGAAAAUCUGGGCCAGGCGGGCAUCAAAAGAAAUAGUCUUGCGCUCAACCAGAAGGUCUGUAGUCAUUUUAAGGGUA [A51C A82G A118G A126G] | 0.22
GUUAACGGUCGUAGGCCAUGGAAACUAGGAGCACCAUUUCGCUGCCAGUGAAGGAAUGAACAAAGAAAGUCUGGGCCAGGCAGGCAUCAAAAGAAAUAGUCUUGCGCUCAACCAGAAAGUCUGUAAUCAUUUUAAGGGUA [A11G A54G A69G] | 0.39
GUUAACGGUCAUAGGCCAUGGAAACUAGGAGCACCAUCUCGCUGCCAGUGAAGAAAUGAAUAAGGAAAAUCUGGGCCAGGCAGGCAUCAAAAGAAAUAGUCUUGCGCUCAACCAGAAAGUCUGUAAUCAUUUUAAGGGUA [U38C C61U A64G] | 1.19
GUUAACGGUCAUAGGCCGUGGAAACUAGGAGCACCAUUUCGCUGCCAGUGAAGAAAUGAACAAAGAAAAUCUGGGCCAGGCAGGCACCAAAAGAAAUGGUCUUGCGCCCAGCCAGAAAGUCUGUAAUCAUUUUAAGGGUA [A18G U87C A98G U108C A111G] | 0.01
GUUAACGGUCAUAGGCCAGGGAAACUAGGAGCACCAUUUCGCUGCCAGUGAAGAGAUGAACAAAGAAAACCUGGGCCAGGCGGGCAUCAAAAGAAAUAGUCUUGCGCACAACCAGAAAGUCUGUAAUCAUUUUAAGGGUA [U19G A55G U70C A82G U108A] | 0.05
GUUAACGGUCAUAGGCCACGGAAACUAGGAGCACCAUUUCGCUGCCAGUGAAGAAAAGAACAAAGAAAAUCUGGGCCAGGCAGGCAUCAAAGGAAAUAGUCUUGCGCUCAACCAGAAAGUCUGUAAUCAUUUUAAGGGUA [U19C U57A A92G] | 1.09
GUUAACGGUCAUAGGCCAUGGAAACUAGGAGCACCAUUUUGCUGCCAGUGAAGAAAUGGACAAAGAAAAUCUGGGCCAGGCAGGCAUCAAAAGAAAUAGUCUUGCGCUCAACCAGAGAGUCUGUAACCAUUUUAAGGGUA [C40U A59G A117G U127C] | 2.15

Variant | self-cleavage
GUUAACGGUCAUAGGCCAUGGAAACUAGGAGCGCCAUUUCGCUGCCAGCGAAGAAAUGAACAAAGAAAAUCUGGGCCAGGCAGGCAUCGAAAGAAAUAGUCUUGCGCUCAACCAGAAAGUCUGUAAUCAUUUUAAGGGUA [A33G U49C A89G] | 0.42
GUUAACGGUCUAAGGCCAUGGAAACUAGGAGCACCAUUUCGCUGCCAGUGAAGAAAUGAACAAAGAAAAUCUGGGCCAGGCAGGCAUCAAAAGAAAUAGUCUUGCGCUCAACCAGAAAGUCUGUAAUCAUUUUAAGGGCA [A11U U12A U139C] | 1.61
GUUAACGGUCAUAGGCCAUGGAAACUAGGAGCACCAUUUCGCUGCCAGUGAAGAGAUGAACAAAGAAAACCUGGGCCAGGCAGGCAUCAAAAGAAAUAGUCUUGCGCUCAACCAGAAAGUCUGUAAUCACUUUAAGGGUA [A55G U70C U130C] | 0.46
GUUAACGGUCAUAGGCCAUGGAAACUAGGAUCACCAUUUCGCUGCCAGUGAAGAAAUGAACAAAGAAAAUCUGGGCCAGGCCGGCAUCAAAAGAAAUAGUCUUGCGCUCAACCAGAAAGUCUGUAGUCAUUUUAAGGGUA [G31U A82C A126G] | 0.02
GCUAACGGUCAUAGGCCAUGGAAACUAGGAGCACCAUUACGCUGCCAGUGAAGAAAUGAACAAAGAAAAUCUGGGCCAGGCAGGCAUCAAAAGAAAUAGCCUUGCGCUCAACCAGAAAGUCUGUAAUCAUUUUAAGGGUA [U2C U39A U100C] | 1.36
GUUAACGGUCAUAGGCCAUGGAAACUAGGAGCACCAUUUCGCUGCCAGUGAAGAAAUGGACAAAGAAAAUCUGGGCCAGGCGGGCAUCAGAAGAAAUAGUCUUGCGCUCAGCCAGAAAGUCUGUAAUCAUUUUAAGGGAA [A59G A82G A90G A111G U139A] | 0.02
GUUAACGGCCAUAGGCCAUGGAGACUAGGGGCACCACUUCGCUGCCAGUGAAGAAAUGAACAAAGAAAAUCUGGGCCAGGCUGGCAUCAAAAGAAAUAGUCUUGCGCUCAACCAGAAAGUCUGUAAUCACUUUAAGGGUA [U9C A23G A30G U37C A82U U130C] | 0.12
GUUAACGGUCAUAGGCCAUGGAAACUAGGAGCACCAUUUCGCUGCCAGUGAAGAAAUGGACAAAGAUGAUCUGGGCCAGGCAGGCAUCAAAAGAAAUAGUCUUGCGCUCAACCAGAAAGUCUGCAAUCAUUUUAAGGGUA [A59G A67U A68G U124C] | 0.81
GUUAACGGUCAUAGGCCAUGGAAACUAGGAGCACCAUUUCGCUGCCAGUGAAGAAACGAACAAAGAAAAUCUGGGCCAGGCAGGCAUCAAAGGAAAUAGUCUUGCGCCCAACCAGAAAGUCUGUAAUCAUCUUAAGGGUA [U57C A92G U108C U131C] | 0.01
GAUAACGGUCAUAGGCCAUGGAAACUAGGAGCACCAUUUCGCUGCCAGUGAAGAAAUGAACAAAGAAAAUCCGGGCCUGGCAGGCAUCAAAAGAAAUAGUCUUGCGCUCAACCAGAAAGUCUGUAAUCAUUUUAAGGGUA [U2A U72C A78U] | 0.21
GUUAACGGCCAUAGGCCAUGGAAACUAGGAGCACCAUUUCGCUGCCAGUGAAGAAAUGAACAAAGAAAAUCUGGGCCAGGCAGGCAUUAAAAGAAAUAGUCUUGCGCUCUACCAGAAAGUCUGUAAUCAUUUUAAGGGUA [U9C C88U A110U] | 2.43
GUUGACGGUCAUAGGCCAUGGAAACUAGGAGCACCAUUUCGCUGCCAGUGAAGAAAUGAACAAAGAAAAUCUGGGCCAGGCAGGCAUCAAAAGGAAUAGUCUCGCGCUCAACCAGAAAGUCUGUAAUCAUUUCGAGGGUA [A4G A94G U103C U133C A134G] | 1.42
GUUAACGGUCAUAGGCCAUGGAAACUAGGAGCACCAUUUCGCUGCCAGUGGAGAAACGAACAAAGAAAAUCUGGGCCAGGCAGGCAUCAAAAGAAAUAGUCUUGCGCUCAACCGGAAAGUCUGUAAUCAUUUUAGGGGUA [A51G U57C A114G A135G] | 0.52
GUUAACGGUCAUAGGCCAUGGAAACCAGGGGCACCAUUUCGCUGCCAGUGAAGAAAUGAACAAGGAAAAUCUGGGCCAGGCAGGCAUCAAAAGAAAUAGUCUUGCACUCAACCAGAAAGUCUGUAAUCAUUUUAAGGGUA [U26C A30G A64G G106A] | 0.04
GUUAACGGUCAUAGGCCGUGGAAACUAGGAGCACCAUUUCGCUGCCAGUGAAGAGAUGAGCAAAGAUAAUCUGGGCCAGGCAGGCAUCAGAAGAAAUAGUCUUGCGCUCAACCAGGAAGUCUGUAAUCAUUUUAAGGGUA [A18G A55G A60G A67U A90G A116G] | 0.05
GUUAACGGUCAUAGGCCAUGGAAACUAGGAGCACCAUUUCGCUGCCAGUGAGGGAAUGAACAAAGAAAAUCUGGGCCAGGCAGGCAACAAAAGAAAUAGUCUUGCGCUCAACCAGAAAGCCUGUAAUCAUUUUAAGGGUA [A52G A54G U87A U120C] | 1.16
GUUAGCGGUCAUAGGCCAUGGGAACUAGGAGCACCAUUUCGCUGCCAGUGAAGAAAUGAACAAAGAAAAUCAGGGCCAGGCAGGCAUCAAAAGAAAUAGUCUUGCGCUCAACCAGAAAGUCUGUAAUCAUUUUAAGGGUA [A5G A22G U72A] | 0
GUUAACGGUCAUAGGCCAUGGUAACUAGGAGCACCAUUUCGCUGCCAGUGAAGAAAUGAGCAAAGAAAAUCUGGGCCAGGCAGGCACCAAAAGAAAUAGUCUUGCGCUCAACCAGAAAGUCUGUAAUCAUUUUAAGGGUA [A22U A60G U87C] | 0.76
GUUAACGGCCAUAGGCCAUGGAAACUAGGAGCACCACUUCGCUGCCAGUGAAGAAAUGAACAAAGAAAAUCUGGGCCAGGCAGGCAUCGAAAGAAAUAGUCUUGCGCUCAACCAGAAAGUCUGUAAUCAUUUUAAGGGUA [U9C U37C A89G] | 1.27
GUUAACGGUCAUAGGCCAUGGGAACUAGGAGCACCAUUUCGCUGCCAGUGAAGAAAUGAACAAGGAAGAUCUGGGCCAGGCAGGCAUCAAAAGAAAUAGUCUUGCGCUCAACCAGAAAGUCUGUAAUCAUUUUAAGGGUA [A22G A64G A68G] | 1.26
